# Data from the supplement of paper PMC8728848.
# The list shows a part of the results.
# B1: PkBDPgamma (Plasmodium knowlesi) (protein)
# chain: SAINQIFLQNNVMDKCNDKRKRGERDWDCPTEKDVCIPDRRYQLCMMEITNLVDTDTHFHSDIIFRKSYSRRRLIYDVGGRGDLLLKKYNNVYSEDLCKDIKWSLQDFGDIIMGTDMEGIGYSLVVQNNLRSIFGTGTSAELDRKKWWNDHKKDIWKAMILSVKEKNRYSAWNCKEDVQIKVEPQIYRWIREWGRDYMSEFREQRRKLNEKCEDKLYYSTMLICTLPPCNNACKSYDEWITGKKKQWDVLSTKFSSVKKAQKIETENIARAYDILKQELNGFNEVTFENEINKRDKLYNYFCVCIVQEARKNTQENVKNVGSGVESKAPSSNPINEAVKSSSGEGKVQEDSAHRSVNEGEGKSSTNEADPGSQPGAAASGGGSGGGTGGGVDLAPQMLRELQETNAALQDVRELLRQQVKEITFLKNTVMECDACGGPLDRNLPPLAPLGPTGGWSHPQFEK
# Key:
# Experiment in all cases: glycan array binding signal (z-score within array); higher = stronger binding
# Details in all cases: glycan notation: IUPAC condensed, linker removed
# [1] = target: Neu5Ac(a2-6)Gal(b1-4)GlcNAc(b1-2)Man(a1-3)[Man(a1-6)]Man(b1-4)GlcNAc(b1-4)GlcNAc
# Method in brief: (§1)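 Columns mapping to the same glycan were averaged after glycan names were converted to IUPAC-condensed notation. The data come from 3228 arrays in the Consortium for Functional Glycomics database, limited to those with an available protein sequence. Binding is reported as a within-array Z-score averaged across arrays of one protein sequence and across linkers.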
# [2] = target: Neu5Ac(a2-6)Gal(b1-4)GlcNAc(b1-2)Man(a1-3)[Neu5Ac(a2-3)Gal(b1-4)GlcNAc(b1-2)Man(a1-6)]Man(b1-4)GlcNAc(b1-4)GlcNAc
# Method in brief: as §1
# [3] = target: Neu5Ac(a2-6)Gal(b1-4)GlcNAc(b1-2)Man(a1-3)[Neu5Ac(a2-6)Gal(b1-4)GlcNAc(b1-2)Man(a1-6)]Man(b1-4)GlcNAc(b1-4)GlcNAc
# Method in brief: as §1
# [4] = target: Neu5Ac(a2-6)Gal(b1-4)GlcNAc(b1-2)Man(a1-3)[Neu5Ac(a2-6)Gal(b1-4)GlcNAc(b1-2)Man(a1-6)]Man(b1-4)GlcNAc(b1-4)[Fuc(a1-6)]GlcNAc
# Method in brief: as §1
# [5] = target: Neu5Ac(a2-6)Gal(b1-4)GlcNAc(b1-2)Man(a1-6)Man(b1-4)GlcNAc(b1-4)GlcNAc
# Method in brief: as §1
# [6] = target: Neu5Ac(a2-6)Gal(b1-4)GlcNAc(b1-2)Man(a1-6)[Gal(b1-4)GlcNAc(b1-2)Man(a1-3)]Man(b1-4)GlcNAc(b1-4)GlcNAc
# Method in brief: as §1
# [7] = target: Neu5Ac(a2-6)Gal(b1-4)GlcNAc(b1-2)Man(a1-6)[GlcNAc(b1-2)Man(a1-3)]Man(b1-4)GlcNAc(b1-4)GlcNAc
# Method in brief: as §1
# [8] = target: Neu5Ac(a2-6)Gal(b1-4)GlcNAc(b1-2)Man(a1-6)[Man(a1-3)]Man(b1-4)GlcNAc(b1-4)GlcNAc
# Method in brief: as §1
# [9] = target: Neu5Ac(a2-6)Gal(b1-4)GlcNAc(b1-2)[Neu5Ac(a2-6)Gal(b1-4)GlcNAc(b1-4)]Man(a1-3)[GlcNAc(b1-4)][Neu5Ac(a2-6)Gal(b1-4)GlcNAc(b1-2)[Neu5Ac(a2-6)Gal(b1-4)GlcNAc(b1-6)]Man(a1-6)]Man(b1-4)GlcNAc(b1-4)GlcNAc
# Method in brief: as §1
# [10] = target: Neu5Ac(a2-6)Gal(b1-4)GlcNAc(b1-2)[Neu5Ac(a2-6)Gal(b1-4)GlcNAc(b1-4)]Man(a1-3)[GlcNAc(b1-4)][Neu5Ac(a2-6)Gal(b1-4)GlcNAc(b1-4)Man(a1-6)]Man(b1-4)GlcNAc(b1-4)GlcNAc
# Method in brief: as §1
# [11] = target: Neu5Ac(a2-6)Gal(b1-4)GlcNAc(b1-2)[Neu5Ac(a2-6)Gal(b1-4)GlcNAc(b1-6)]Man(a1-6)[Neu5Ac(a2-6)Gal(b1-4)GlcNAc(b1-2)Man(a1-3)][GlcNAc(b1-4)]Man(b1-4)GlcNAc(b1-4)GlcNAc
# Method in brief: as §1
# [12] = target: Neu5Ac(a2-6)Gal(b1-4)GlcNAc(b1-3)Gal(b1-3)GlcNAc
# Method in brief: as §1
# [13] = target: Neu5Ac(a2-6)Gal(b1-4)GlcNAc(b1-3)Gal(b1-4)GlcNAc
# Method in brief: as §1
# [14] = target: Neu5Ac(a2-6)Gal(b1-4)GlcNAc(b1-3)Gal(b1-4)GlcNAc(b1-2)Man(a1-3)[Neu5Ac(a2-6)Gal(b1-4)GlcNAc(b1-3)Gal(b1-4)GlcNAc(b1-2)Man(a1-6)]GalNAc
# Method in brief: as §1
# [15] = target: Neu5Ac(a2-6)Gal(b1-4)GlcNAc(b1-3)Gal(b1-4)GlcNAc(b1-3)Gal(b1-4)GlcNAc
# Method in brief: as §1
# [16] = target: Neu5Ac(a2-6)Gal(b1-4)GlcNAc(b1-3)Gal(b1-4)GlcNAc(b1-3)Gal(b1-4)GlcNAc(b1-2)Man(a1-3)[Neu5Ac(a2-6)Gal(b1-4)GlcNAc(b1-3)Gal(b1-4)GlcNAc(b1-3)Gal(b1-4)GlcNAc(b1-2)Man(a1-6)]GalNAc
# Method in brief: as §1
# [17] = target: Neu5Ac(a2-6)Gal(b1-4)GlcNAc(b1-3)Gal(b1-4)GlcNAc(b1-3)GalNAc
# Method in brief: as §1
# [18] = target: Neu5Ac(a2-6)Gal(b1-4)GlcNAc(b1-3)Gal(b1-4)GlcNAc(b1-3)[Neu5Ac(a2-6)Gal(b1-4)GlcNAc(b1-3)Gal(b1-4)GlcNAc(b1-6)]GalNAc
# Method in brief: as §1
# [19] = target: Neu5Ac(a2-6)Gal(b1-4)GlcNAc(b1-3)Gal(b1-4)GlcNAc(b1-6)[Gal(b1-3)]GalNAc
# Method in brief: as §1
# [20] = target: Neu5Ac(a2-6)Gal(b1-4)GlcNAc(b1-3)Gal(b1-4)[Fuc(a1-3)]GlcNAc(b1-3)Gal(b1-4)[Fuc(a1-3)]GlcNAc
# Method in brief: as §1
# [21] = target: Neu5Ac(a2-6)Gal(b1-4)GlcNAc(b1-3)GalNAc
# Method in brief: as §1
# [22] = target: Neu5Ac(a2-6)Gal(b1-4)GlcNAc(b1-3)[Neu5Ac(a2-6)Gal(b1-4)GlcNAc(b1-6)]GalNAc
# Method in brief: as §1
# [23] = target: Neu5Ac(a2-6)Gal(b1-4)GlcNAc(b1-6)GalNAc
# Method in brief: as §1
# [24] = target: Neu5Ac(a2-6)Gal(b1-4)GlcNAc(b1-6)[Gal(b1-3)GlcNAc(b1-3)]Gal(b1-4)Glc
# Method in brief: as §1
# [25] = target: Neu5Ac(a2-6)Gal(b1-4)GlcNAc(b1-6)[Gal(b1-3)]GalNAc
# Method in brief: as §1
# [26] = target: Neu5Ac(a2-6)Gal(b1-4)GlcNAc6S
# Method in brief: as §1
# [27] = target: Neu5Ac(a2-6)GalNAc
# Method in brief: as §1
# [28] = target: Neu5Ac(a2-6)GalNAc(b1-4)GlcNAc
# Method in brief: as §1
# [29] = target: Neu5Ac(a2-6)GalNAc(b1-4)GlcNAc6S
# Method in brief: as §1
# [30] = target: Neu5Ac(a2-6)GlcNAc(b1-4)GlcNAc
# Method in brief: as §1
# [31] = target: Neu5Ac(a2-6)GlcNAc(b1-4)GlcNAc(b1-4)GlcNAc
# Method in brief: as §1
binder,measurement,setting,value
B1,glycan array binding signal (z-score),[1],-0.558
same,glycan array binding signal (z-score),[2],0.43
same,glycan array binding signal (z-score),[3],-0.003
same,glycan array binding signal (z-score),[4],-0.048
same,glycan array binding signal (z-score),[5],0.247
same,glycan array binding signal (z-score),[6],0.037
same,glycan array binding signal (z-score),[7],-0.232
same,glycan array binding signal (z-score),[8],0.328
same,glycan array binding signal (z-score),[9],-0.13
same,glycan array binding signal (z-score),[10],-0.269
same,glycan array binding signal (z-score),[11],-0.382
same,glycan array binding signal (z-score),[12],-0.469
same,glycan array binding signal (z-score),[13],-0.094
same,glycan array binding signal (z-score),[14],0.091
same,glycan array binding signal (z-score),[15],0.015
same,glycan array binding signal (z-score),[16],0.405
same,glycan array binding signal (z-score),[17],-0.302
same,glycan array binding signal (z-score),[18],0.922
same,glycan array binding signal (z-score),[19],-0.108
same,glycan array binding signal (z-score),[20],0.035
same,glycan array binding signal (z-score),[21],0.327
same,glycan array binding signal (z-score),[22],-0.284
same,glycan array binding signal (z-score),[23],-0.383
same,glycan array binding signal (z-score),[24],1.24
same,glycan array binding signal (z-score),[25],-0.109
same,glycan array binding signal (z-score),[26],-0.657
same,glycan array binding signal (z-score),[27],-0.004
same,glycan array binding signal (z-score),[28],-0.045
same,glycan array binding signal (z-score),[29],-0.025
same,glycan array binding signal (z-score),[30],0.122
same,glycan array binding signal (z-score),[31],-0.479
